# The campaign covered roughly 150,000 compounds. About 180 (0.12%) were called active. The inconclusive results got no clear call from the source; some entries with a clear call stand among them for comparison. Calls come from the whole dose curve; as a rule, active = well fitted cell-killing curve with a large enough effect; inconclusive = small, poorly fitted or top-dose-only effect, or effect the other way; inactive = flat fitted curve, though single readings scatter. Potencies of inconclusive entries are doubtful fits and often do not repeat.
# Experiment: GF-AFC viability counterscreen for inhibitors of alpha-synuclein gene (SNCA) expression; note: nearly all actives have a fitted effect of over 30% in size;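 for activity change, negative = cytotoxicity: 0% = DMSO-treated cells and -100% = medium-only wells without cells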
# Conditions: HEK-293-SNCA-luc viability, GF-AFC fluorescence, 24 h; activity change, negative = cytotoxicity: at 57.1 µM (top of the series) unless noted
# Procedure, shortened: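 HEK-293-SNCA-luc cells (1500/well) plated 24 h, then exposed 24 h to a dilution series; GF-AFC added 30 min at 37C, fluorescence 405/540 nm; normalised to medium-only and DMSO wells, Hill fit.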
# Potency is the fitted concentration of half-maximal effect; tags give direction and shape of the fitted curve.
Structure (SMILES),Potency,"activity change, negative = cytotoxicity"
CCNC(=O)NC[C@@H]1C=C(C)[C@H](Cc2nnc(-c3ccccc3F)o2)C[C@H]1C(C)C,"inconclusive: 31.6 µM [cytotoxic, partial curve]",
COc1cc([N+](=O)[O-])ccc1NC(=O)N1CCC2(CC1)Nc1cc(F)ccc1-n1cccc12,"inconclusive: 5.62 µM [cytotoxic, partial curve, poor fit]",
O=C(C[C@H]1NC(=O)c2ccccc2NC1=O)Nc1nc2c(s1)CCC2,,inactive: 4.63%
CCCC(C(=O)Nc1cc(C)c(Cl)cc1OC)N1Cc2ccccc2C1=O (configuration not stated),"inconclusive: 31.6 µM [cytotoxic, single point]",
COc1ccccc1Nc1ccnc(N2CCCC(C(=O)N3CCC(C#N)CC3)C2)n1 (configuration not stated),"inconclusive: 3.16 µM [cytotoxic, partial curve, poor fit]",
Cn1c(SCC(=O)Nc2ccccc2F)nc2c([nH]c3ccccc32)c1=O,"inconclusive: 10 µM [cytotoxic, partial curve, poor fit]",
CCc1ccccc1NC(=O)CSc1nccn1C,"inconclusive: 1 µM [rising, full curve, poor fit]",
CS(=O)(=O)N1CCCC1C(=O)Nc1ccc(-c2cccc(F)c2)cc1 (configuration not stated),"inconclusive: 2 µM [cytotoxic, partial curve, poor fit]",
CC(C)(Oc1nn(Cc2cccc(Cl)c2)c2ccccc12)C(=O)NCCc1cnc[nH]1,"inconclusive: 39.8 µM [cytotoxic, partial curve, poor fit]",
COc1ccc(OC)c(CN2CCCn3nc(C)c(-c4ccccc4OCc4ccccc4)c32)c1,active: 3.98 µM,
Nc1nonc1-c1nc2ccccc2n1CC(=O)Nc1ccc(F)cc1,"inconclusive: 1.78 µM [cytotoxic, partial curve, poor fit]",
COc1cc(OC)cc(C(=O)N[C@@H]2CN(C)C[C@H]2CN(C)C)c1,,inactive: 4.68%
COc1ccc(C(=O)N2CCC3(CC2)N=C(c2ccc(Br)cc2)NO3)cc1,,inactive: -3.61%
COCc1ccc2c(c1)c(OC(C)(C)C(=O)Nc1cc(C)nn1C)nn2CCC(C)C,"inconclusive: 56.2 µM [cytotoxic, single point]",
COc1ccccc1CCC(=O)N[C@@H]1CN(c2ncccn2)C[C@H]1CN(C)C,,inactive: -8.58%
C[C@@H](c1nc(-c2ccc(C#N)cc2)cs1)[C@](O)(Cn1cncn1)c1cc(F)ccc1F,"inconclusive: 37.7 µM [cytotoxic, partial curve, poor fit]",
CC(=O)Nc1cccc(-c2ccc3c(n2)CN(Cc2ccccc2F)C(=O)CO3)c1,"inconclusive: 63.1 µM [cytotoxic, partial curve, poor fit]",
Fc1ccccc1Nc1cnc2ccc(-c3ccccc3)nn12,,inactive: -1.65% [at 87.6 µM]
CCC(C)n1c(=N)c(C(=O)NC2CCCCC2)cc2c(=O)n3cc(C)ccc3nc21 (configuration not stated),"inconclusive: 8.91 µM [rising, partial curve]",

Structure (SMILES),Potency,"activity change, negative = cytotoxicity"
COc1ccc(C(=O)N2CCC(C(=O)N3CCCCCCNC(=O)CC3)CC2)c(OC)c1,"inconclusive: 7.08 µM [cytotoxic, single point]",
COc1ccccc1N1CCN(Cc2cc(COC(C)C)c3cccnc3c2O)CC1,"inconclusive: 1.26 µM [cytotoxic, full curve]",
COc1ccccc1OC(C)C(=O)N1CCN(CCc2ccccn2)CC1 (configuration not stated),,inactive: -3.21%
CCC(=O)N1CCc2c(C(=O)NCc3ccc(OC)cc3)cccc21,"inconclusive: 0.891 µM [cytotoxic, full curve, poor fit]",
O=C(NCc1cccc(C(F)(F)F)c1)c1cn2cc(-c3ccc(C(F)(F)F)cc3)sc2n1,"inconclusive: 2.82 µM [cytotoxic, partial curve, poor fit]",
Cc1ccccc1C(=O)Nc1ccc2nc(SCC(=O)N(C)c3ccccc3)sc2c1,"inconclusive: 39.8 µM [cytotoxic, single point]",
CC(C)c1ccc(NC(=O)CSC2=Nc3ccccc3C3=NC(CC(=O)NCCc4ccccc4)C(=O)N23)cc1 (configuration not stated),"inconclusive: 20 µM [cytotoxic, partial curve, poor fit]",
COc1ccccc1-c1ccc(C(=O)N2CCC(C(=O)NCc3cccc(Cl)c3)CC2)cc1,,inactive: 6.59% [at 12.5 µM]
COCC(=O)NC1CCCN(Cc2ccc(-c3cc(C)cc(C)c3)cc2)C1 (configuration not stated),"inconclusive: 0.708 µM [cytotoxic, full curve, poor fit]",
O=C(NC1CCc2nnc(C3CC3)n2CC1)C1(c2ccccc2)CC1 (configuration not stated),"inconclusive: 39.8 µM [rising, single point]",
COC(=O)c1ccc(NC(=O)c2nn(C)c3c2COc2ccccc2-3)cc1,"inconclusive: 31.6 µM [rising, partial curve, poor fit]",
CN1CCN(c2ncc3nc(-c4cn(C)c5ccccc45)c(=O)n(C[C@H]4CCCO4)c3n2)CC1,"inconclusive: 28.2 µM [rising, partial curve, poor fit]",
CN(C(=O)Cn1c(=O)n(Cc2ccc(C(=O)NCc3ccc4c(c3)OCO4)cc2)c(=O)c2ccccc21)c1ccccc1,"inconclusive: 4.47 µM [cytotoxic, full curve, poor fit]",
Cc1ccc(CN2C(=O)OC(c3cccc(NC(=O)c4ccccc4)c3)C2C(=O)NCCC(C)C)cc1 (configuration not stated),"inconclusive: 0.708 µM [cytotoxic, full curve, poor fit]",
CCN1CCc2c(sc(NC(=O)CSc3ccccc3)c2-c2nc3ccccc3s2)C1,"inconclusive: 35.5 µM [rising, partial curve, poor fit]",
O=C(c1cccc(Cl)c1)N1CCC(n2cc(-c3nc(-c4ccccc4)no3)nn2)C1 (configuration not stated),"inconclusive: 35.5 µM [cytotoxic, single point]",
Cn1ccnc1CN1CCOC(CCNC(=O)NC2CCCC2)C1 (configuration not stated),"inconclusive: 3.16 µM [cytotoxic, single point]",
Cc1ccc(-c2noc([C@@H]3C[C@@H](O)CN3Cc3ccc(S(C)(=O)=O)cc3)n2)cc1F,,inactive: -0.249% [at 87.6 µM]
CCCS(=O)(=O)N1CCc2nn(CC3CC3)c(=O)n2CC1,"inconclusive: 5.62 µM [rising, single point]",

Structure (SMILES),Potency,"activity change, negative = cytotoxicity"
COc1ccc(CN2C(=O)c3ccccc3C2C(=O)NC2CCCCCC2)c(OC)c1 (configuration not stated),"inconclusive: 8.91 µM [cytotoxic, partial curve, poor fit]",
O=C(Cn1ncc2c3ccccc3n(Cc3cccc(Cl)c3)c2c1=O)N1CCCCC1,"inconclusive: 22.4 µM [cytotoxic, single point]",
CC1=C[C@@H](CNC(=O)NC2CCCCC2)[C@H](C(C)C)C[C@H]1Cc1nc2ccc(C)cc2[nH]1,"inconclusive: 25.1 µM [cytotoxic, partial curve, poor fit]",
O=C(CC1COCCN1C(=O)CCn1ccccc1=O)N1CCCCCC1 (configuration not stated),,inactive: -5.44%
CCCN1C(C(=O)c2ccccc2)=C(OC(=O)C(C)(C)C)c2ccccc2S1(=O)=O,"inconclusive: 28.2 µM [cytotoxic, single point]",
Cc1ccc(-n2ncc(C(=O)N3CCN(c4cccc(C)c4C)CC3)c2C2CCNCC2)c(C)c1,"inconclusive: 1 µM [rising, full curve]",
COCCOc1ccc(C(=O)N[C@@H]2CNCCC[C@H]2O)cc1,,inactive: 7.85% [at 87.6 µM]
Clc1ccc(CNC[C@H]2Cn3c(-c4cccc(Cl)c4)cnc3CO2)cc1,"inconclusive: 35.5 µM [cytotoxic, single point]",
CC(C)c1ccc(NC(=O)c2cc3n(n2)CC(c2ccc(Cl)cc2)OC3)cc1 (configuration not stated),,inactive: 1.59%
CC1=NS(=O)(=O)N(C)C=C1C(=O)OCc1nc(-c2ccc(Br)cc2)no1,"inconclusive: 39.8 µM [cytotoxic, partial curve, poor fit]",
CCC(C(=O)Nc1cc(OC)ccc1OC)n1nc(-c2ccccc2)c2c(c1=O)CCCC2 (configuration not stated),"inconclusive: 25.1 µM [cytotoxic, single point]",
CNC(=O)c1cccc(-c2cnc3[nH]cc(CC(=O)N(C)c4ccccc4)c3c2)c1,"inconclusive: 11.2 µM [cytotoxic, partial curve]",
CC1(C)CC[C@]23CO[C@@]4(CCC5[C@@]6(C)CC[C@H](O[C@@H]7OC[C@H](O[C@@H]8O[C@H](CO)[C@@H](O)[C@H](O)[C@H]8O[C@@H]8OC[C@@H](O)[C@H](O)[C@H]8O)[C@H](O)[C@H]7O[C@@H]7O[C@H](CO)[C@@H](O)[C@H](O)[C@H]7O)[C@@](C)(CO)C6CC[C@@]5(C)[C@]4(C)C[C@H]2O)[C@@H]3C1 (some centres not stated),"inconclusive: 8.98 µM [cytotoxic, single point]",
Cc1cccc(Cn2nnc3c(=O)[nH]c(C4CCCN(C(=O)c5ccc(C(C)(C)C)cc5)C4)nc32)c1 (configuration not stated),"inconclusive: 39.8 µM [cytotoxic, single point]",
COc1cc(=O)n2c(c1C(=O)Nc1cc(Cl)cc(Cl)c1)CCCC2,,inactive: 0.73%
CC(=O)c1ccc(NC(=O)N2C[C@@H]3C[C@H](C2)c2ccc(NC(=O)Nc4cccc(F)c4)c(=O)n2C3)cc1,,inactive: -0.678%
COc1cccc(-c2cccc(C(=O)N3CCCC3C(=O)NC3CCC3)c2)c1 (configuration not stated),"inconclusive: 20 µM [cytotoxic, partial curve, poor fit]",
CC[C@H](C)C(=O)O[C@H]1C[C@@H](C)C=C2C=C[C@H](C)[C@H](CC[C@@H]3C[C@@H](O)CC(=O)O3)[C@H]21,"inconclusive: 15.2 µM [cytotoxic, single point]",
CNC(=O)c1cccc(-c2cnc(Nc3cccnc3OC)c3c2CCO3)c1,"inconclusive: 31.6 µM [cytotoxic, single point]",

# From PubChem BioAssay AID1671193 (National Center for Advancing Translational Sciences (NCATS), 2021)
